T1: UNK ZnF1-3 (human, UniProt Q9C0B0 31-174)
T1 sequence: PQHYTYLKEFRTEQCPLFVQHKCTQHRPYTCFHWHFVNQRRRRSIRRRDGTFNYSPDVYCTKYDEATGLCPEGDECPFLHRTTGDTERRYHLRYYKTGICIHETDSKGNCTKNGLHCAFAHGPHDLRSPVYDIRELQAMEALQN

B1: 70925867_70925987_1684_CDS_ENSMUSG00000019558_ENSMUST00000114465|mouse|control|control (ssRNA)
RNA: GGGAGUUCUACAGUCCGACGAUCGAGACAGCCCAGGAGGUGGAGGGGUACACAUAGCAUAGAAGAGAGUGCAAAGGCCCAGCCCAUAGCUUCACCCCACCAUGGGUACACGUAGGUGUUGUUGUAGACCAGUGGCUCGUAGUACAACAGAGGAUUGAGCAUCA
B2: 126983161_126983534_11633_CDS_ENSMUSG00000040249_ENSMUST00000049149|mouse|control|control (ssRNA)
RNA: GGGAGUUCUACAGUCCGACGAUCGUCUUUGCAGUGGGGGUUCUGGGCCGUGGGGGGCUCACAGUCCUCCUCGUCAGUCCCAUCUCCACAGUUGUCCACGCCAUCACACUGGCGCCCAAUCCACAGGCAGACUCGGUCAUUCUUCAACAGAGGAUUGAGCAUCA
B3: 100153759_100153879_149_5pUTR_ENSG00000125304_ENST00000376387|human|control|control (ssRNA)
RNA: GGGAGUUCUACAGUCCGACGAUCCCGGCAGCCUCGCGCUCAUGAUAGUUGUUUCGGGGAAAGGGCAAUCAAACCUAGGGGGUCAAGAGGGAAGGAGGGGUGGGGAGUCUCGGAGACGACUACAAGGCCGCCAGAGAUAAAGGACAACAGAGGAUUGAGCAUCA
B4: chrX:140292434:140292435:-_ENSMUSG00000031285_ENSMUST00000033642|mus_mus|FALSE|FALSE (ssRNA)
RNA: GGGAGUUCUACAGUCCGACGAUCAAAGACCUAAACAUUCAUGAGCUGUAAGGACAGUGCUUGAAAAGAUCUACUGAGACUAAAACAGGAAAAAAAAAAAGAAAGGGUCAGAAUCAGGUUGUUUUCUACCAACCUACUUGUGACCAACAGAGGAUUGAGCAUCA
B5: chr3:148522152:148522153:-_ENSMUSG00000028184_ENSMUST00000106128|mus_mus|motif|central (ssRNA)
RNA: GGGAGUUCUACAGUCCGACGAUCGGGUGACGUAUCGUGGUAGUUGGCAUAGUUGAUGAUAGCCUCGCCGCUCUUGAUUCGGGUCCUCAAGUCAAACUUAACAAUGUUUCUGGUUCUUUCCUUGUUAAAGAAGACGGCUCCAUCCAACAGAGGAUUGAGCAUCA
B6: chr3:57561359:57561360:-_ENSG00000168374_ENST00000303436|hu_mus|FALSE|FALSE (ssRNA)
RNA: GGGAGUUCUACAGUCCGACGAUCCUUGUCUGUCAUCUCACUGAUGGCCAUAGCGUUUGGCAGAUCCUGUUUGUUUGCAAAAAGGAGCAGCACUGCAUCCUGCAGCUCAUCUUCCAGAAGCAUUUUCUGCAGCACAGCUGCUCCCAACAGAGGAUUGAGCAUCA
B7: chr6:13820011:13820012:-_ENSMUSG00000052419_ENSMUST00000155856|mus_hu|FALSE|FALSE (ssRNA)
RNA: GGGAGUUCUACAGUCCGACGAUCUAAAUGUUUUUUCCCUAGAGAUAAAAGUUUUCCUUUUUGCCUGACUCUCUGAUAUCUAAAUAUAAUAUUAACUUGGGAGACAACAAAACAAAAAUCUAAUUUAAAAGACUCCUCAACGAUCAACAGAGGAUUGAGCAUCA
B8: chr7:65705475:65705476:+_ENSG00000169902_ENST00000304842|hu_hu|hu_hu_hu_mus_True|68_108 (ssRNA)
RNA: GGGAGUUCUACAGUCCGACGAUCUCUAUCCGGUGAUGGCACUCCAUGGCAUGCUGGCCCAGGUAAAACACAGUCACAGAACUAAUCACCAGACACGCCAAGAGUAAGUUCUGCUUCAGCUUCCCAACCAUCUUGAUGUGGUUACAACAGAGGAUUGAGCAUCA
B9: 22790091_22790211_509_ncRNA_ENSMUSG00000026784_ENSMUST00000139472|mouse|control|control (ssRNA)
RNA: GGGAGUUCUACAGUCCGACGAUCAUGACUGGAGUUUGAUGAAGAAAGAACUGACUACUCAGACACCUGUCUCCCCACCGUGUGUGACACACACUAUAAGUCCCUCAGUAAUGAUGACAAUGUCUUGUAUCCUCUUCAUUUUUACAACAGAGGAUUGAGCAUCA
B10: chr2:84898283:84898284:+_ENSMUSG00000033955_ENSMUST00000148682|mus_hu|FALSE|FALSE (ssRNA)
RNA: GGGAGUUCUACAGUCCGACGAUCUGAGGGAAUCCAGGGCUUGGAAAUAUCAGCAGGUAGCUCCGAGCUGGCUGCCUUAGCCAGGUCCCCGUUGAAGGCCAGGUCGGAAGGAAGGCUCCUCUCCUCAGGGGUCUUGCUGUGCUCCAACAGAGGAUUGAGCAUCA
B11: 31085571_31085691_2166_3pUTR_ENSG00000092140_ENST00000206595|human|control|control (ssRNA)
RNA: GGGAGUUCUACAGUCCGACGAUCUUUCUUAUGGUGAAGUCCAUAUUUUCUUGAAACUCUUUAUAUGUAUUGGUGAUGGGAAUUGCUAAACAGUUAUUACACUUGUUUCCAACAGGAAAAUCCACAUGCAGACACUCAAUUGAACAACAGAGGAUUGAGCAUCA
B12: chr7:7612872:7612873:+_ENSG00000164654_ENST00000405785|hu_hu|FALSE|FALSE (ssRNA)
RNA: GGGAGUUCUACAGUCCGACGAUCUUUUGUUAAGGGUUUUGGUUGCUCAGUCAAUGUCAAAACUGGCUUCUCAAAUUUUCUAAGAUCCCAUAUUGCAACCUGACCUUCAUAGAAGGAAGCAACACGAUCGUGGAAAUAUGGGUCCAACAGAGGAUUGAGCAUCA
B13: chr17:65740002:65740003:+_ENSG00000130935_ENST00000581375|hu_hu|hu_hu_hu_mus_False|8_78 (ssRNA)
RNA: GGGAGUUCUACAGUCCGACGAUCAACAAAUCUUUCUUCCCUGGACGAACAGGAAGACAUAAAAGAGAAAAAAUAUAUAUCCAUCAAGUUAGGUGUGGUGGCCACACCUUUACUCCCAGCACUUUGGGAAUAUAAUCUCUGAGUCAACAGAGGAUUGAGCAUCA
B14: chrX:71549400:71549401:+_ENSMUSG00000019087_ENSMUST00000019231|mus_hu|mus_mus_mus_hu_False|28_28 (ssRNA)
RNA: GGGAGUUCUACAGUCCGACGAUCGCAGUAGGAAGAGGGAAGCUCUUCAGUCCAGUGCGCUGCAGGGUGGGAAAGCAACAACACGGACACCGUCCCACCCUCAACCCUCUCAGGUGUACAGGGUCACACAAUCUGGGUCAAAGACAACAGAGGAUUGAGCAUCA
B15: chr6:136599331:136599332:-_ENSG00000029363_ENST00000527536|hu_hu|motif|central (ssRNA)
RNA: GGGAGUUCUACAGUCCGACGAUCGGGAGCAUCAGAGCAAGAUGAACUCUGACUAGGUGGUGUAGCAAUAGGUGAAGGACGGUGGGGUGAUCUAGGACUAUUAUCAUAAGCUGAAAGGCCAGGCCAAAUAUCACCGGAUGUGGCCAACAGAGGAUUGAGCAUCA
B16: 10778163_10778283_2511_3pUTR_ENSMUSG00000024294_ENSMUST00000052838|mouse|control|control (ssRNA)
RNA: GGGAGUUCUACAGUCCGACGAUCAGUGCAGCAUGGUGCAGGGCAUUGAACCCGUUAUUGUUCGUGAUGGUCACAUCUGCUCCAGCUUCCAGAAGAACUGCCAGAAUGUCAUCCCGUUUCUUACUUAUGGCAUCAUGGAGAGGGCAACAGAGGAUUGAGCAUCA
B17: 87593544_87593664_207_3pUTR_ENSG00000163629_ENST00000511467|human|control|control (ssRNA)
RNA: GGGAGUUCUACAGUCCGACGAUCGAUUUUGAAGAACCUCUGGUGCAGUGAAUGCUCGAAGAUCCUGAUUGGAAAUAUUUUCAUCUGUAAAUGACACACUACCAGAUGGCAGCAACAGCAGAGACCAUGGAGAAAUGAUGAAGCCAACAGAGGAUUGAGCAUCA
B18: chr12:39756943:39756944:-_ENSG00000139116_ENST00000544797|hu_mus|hu_hu_hu_mus_False|38_68 (ssRNA)
RNA: GGGAGUUCUACAGUCCGACGAUCGGUUUGGCUGUUACCCCCAAGGGAAUCCUGCAAGAGUCUUGUCAGCUUGGAAUCUCUGUAAGGGACAUGGGUGGCCCUCUUGCUCUUGUCCCCCAAGGCGCUGAUUACAUUCCCAAGAGCCAACAGAGGAUUGAGCAUCA
B19: chr2:216981417:216981418:+_ENSG00000079246_ENST00000392132|hu_hu|hu_hu_hu_mus_True|1_1 (ssRNA)
RNA: GGGAGUUCUACAGUCCGACGAUCCUGAUACUGGUCCUUGCCAGCAAGGGCAUUAUCAGUGCCAUCUGUGCCAUAGAGGACUAACGCAAUCUCAUCUUUGCUCUCCGAAAAUACCUGUCGUUGGACAAACAUAGUCAUCACCUUCAACAGAGGAUUGAGCAUCA
B20: 130037582_130039980_264_3pUTR_ENSMUSG00000074088_ENSMUST00000105994|mouse|control|control (ssRNA)
RNA: GGGAGUUCUACAGUCCGACGAUCAAGCCAGGGUGGAUCCAUUGGGGUGAAACUUGCAGCAGUACACUUCCCCCUCAUGUCCCGAGAGCAGCAUGAUUGGAGCUUGAAGGGAAGAACACCUGGGCGGUCCCGCCUGCAGCAAUGCAACAGAGGAUUGAGCAUCA
B21: 53432259_53432480_2043_3pUTR_ENSG00000072501_ENST00000322213|human|control|control (ssRNA)
RNA: GGGAGUUCUACAGUCCGACGAUCGGUCACUGGCCCCACCAGAGAUCACUCCUGACUUCUGGAAUAGGGUUCCAUCCAGUGCCACUGUCUUGUGGCGCUGGUGGCCUCCAAAGGCAAUGCGGCGGGCAUCUUCCACGUUGUCACCAACAGAGGAUUGAGCAUCA
B22: chr4:144391305:144391306:+_ENSG00000109458_ENST00000262995|hu_hu|motif|central (ssRNA)
RNA: GGGAGUUCUACAGUCCGACGAUCGGCACUAUGGUGUCAAAAGACAGAAUUUCAUAGAGUAAUAAAUCUGAAUUACGGUCGGAUUAAAAAUCACAGUAUGUUGCUGUAACUAACAGUGAAUGUCAACUGCUUUAUUAAUUCCAACAACAGAGGAUUGAGCAUCA

Some of the results follow.

This test has as its target T1, UNK ZnF1-3. In words: nsRBNS (natural sequence RNA bind-n-seq); RBNS binding buffer (assumed for nsRBNS): 25 mM Tris pH 7.5, 150 mM KCl, 3 mM MgCl2, 0.01% Triton X-100, 500 ug/ml BSA, 20 U/ml SUPERase-In, 4 C; UNK is unkempt and MSI1 is Musashi-1; names of the RNAs are library labels; protein concentration not given here; high values mean tight binding.
Take B1: the binding signal is 1.49 enrichment R.
B2 registered a binding signal of 1.02 enrichment R.
Consider B3, for which the binding signal is 2.22 enrichment R.
The figure for B4 is 1.52 enrichment R; for B5 it is 0.4 enrichment R.
The figure for B6 is 0.391 enrichment R.
The figure for B7 is 1.64 enrichment R; for B8 it is 0.564 enrichment R; for B9 it is 0.985 enrichment R.
B10 gave a binding signal of 0.718 enrichment R.
The figure for B11 is 0.725 enrichment R.
The figure for B12 is 1.04 enrichment R.
The figure for B13 is 1.02 enrichment R; for B14 it is 0.938 enrichment R; for B15 it is 1.83 enrichment R.
For the molecule B16, the binding signal amounted to 1.2 enrichment R.
The figure for B17 is 1.87 enrichment R.
For B18, the binding signal was determined as 0.866 enrichment R.
Molecule B19 gave a binding signal of 0.744 enrichment R.
The figure for B20 is 1.06 enrichment R; for B21 it is 0.548 enrichment R; for B22 it is 0.561 enrichment R.

The record behind these values is publication PMC12136788.
